From the supplement of paper PMC8728848
Some of the results follow.

How the values were obtained:
Experiment in all cases: glycan array binding signal (z-score within array); higher = stronger binding
Conditions in all cases: glycan notation: IUPAC condensed, linker removed
[1] = target: Fuc(a1-2)[GalNAc(b1-3)]Gal
In short: (§1)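 Columns mapping to the same glycan were averaged after glycan names were converted to IUPAC-condensed notation. The data come from 3228 arrays in the Consortium for Functional Glycomics database, limited to those with an available protein sequence. Binding is reported as a within-array Z-score averaged across arrays of one protein sequence and across linkers.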

Fuc(a1-3)GlcNAc = target: Fuc(a1-3)GlcNAc
In short: as §1

[2] = target: Fuc(a1-3)[Gal(b1-4)]Glc6S
In short: as §1

[3] = target: Fuc(a1-3)[Gal(b1-4)]GlcNAc
In short: as §1

[4] = target: Fuc(a1-3)[Gal(b1-4)]GlcNAc(b1-2)Man
In short: as §1

[5] = target: Fuc(a1-3)[Gal(b1-4)]GlcNAc(b1-2)Man(a1-3)[Fuc(a1-3)[Gal(b1-4)]GlcNAc(b1-2)Man(a1-6)]Man(b1-4)GlcNAc(b1-4)GlcNAc
In short: as §1

[6] = target: Fuc(a1-3)[Gal(b1-4)]GlcNAc(b1-2)Man(a1-3)[Fuc(a1-3)[Gal(b1-4)]GlcNAc(b1-2)Man(a1-6)]Man(b1-4)GlcNAc(b1-4)[Fuc(a1-6)]GlcNAc
In short: as §1

[7] = target: Fuc(a1-3)[Gal(b1-4)]GlcNAc(b1-3)Gal(b1-3)[Fuc(a1-4)]GlcNAc
In short: as §1

[8] = target: Fuc(a1-3)[Gal(b1-4)]GlcNAc(b1-3)Gal(b1-4)[Fuc(a1-3)]GlcNAc
In short: as §1

[9] = target: Fuc(a1-3)[Gal(b1-4)]GlcNAc(b1-3)Gal(b1-4)[Fuc(a1-3)]GlcNAc(b1-3)Gal(b1-4)[Fuc(a1-3)]GlcNAc
In short: as §1

[10] = target: Fuc(a1-3)[Gal(b1-4)]GlcNAc(b1-3)GalNAc
In short: as §1

[11] = target: Fuc(a1-3)[Gal(b1-4)]GlcNAc(b1-6)GalNAc
In short: as §1

[12] = target: Fuc(a1-3)[Gal(b1-4)]GlcNAc(b1-6)[Gal(b1-3)GlcNAc(b1-3)]Gal(b1-4)Glc
In short: as §1

[13] = target: Fuc(a1-3)[Gal(b1-4)]GlcNAc6S
In short: as §1

[14] = target: Fuc(a1-3)[Gal3S(b1-4)]Glc
In short: as §1

[15] = target: Fuc(a1-3)[Gal3S(b1-4)]GlcNAc
In short: as §1

[16] = target: Fuc(a1-3)[Gal3S(b1-4)]GlcNAc6S
In short: as §1

[17] = target: Fuc(a1-3)[GalNAc(b1-4)]GlcNAc
In short: as §1

[18] = target: Fuc(a1-3)[GalNAc(b1-4)]GlcNAc6S
In short: as §1

Fuc(a1-4)GlcNAc = target: Fuc(a1-4)GlcNAc
In short: as §1

Fuc(b1-3)GlcNAc = target: Fuc(b1-3)GlcNAc
In short: as §1

Gal(a1-2)Gal = target: Gal(a1-2)Gal
In short: as §1

Gal(a1-3)Gal = target: Gal(a1-3)Gal
In short: as §1

Gal(a1-3)Gal(b1-3)GlcNAc = target: Gal(a1-3)Gal(b1-3)GlcNAc
In short: as §1

[19] = target: Gal(a1-3)Gal(b1-3)GlcNAc(b1-2)Man
In short: as §1

[20] = target: Gal(a1-3)Gal(b1-3)GlcNAc(b1-2)Man(a1-3)[Gal(a1-3)Gal(b1-3)GlcNAc(b1-2)Man(a1-6)]Man(b1-4)GlcNAc(b1-4)GlcNAc
In short: as §1

[21] = target: Gal(a1-3)Gal(b1-3)GlcNAc(b1-3)GalNAc
In short: as §1

[22] = target: Gal(a1-3)Gal(b1-3)GlcNAc(b1-6)GalNAc
In short: as §1

[23] = target: Gal(a1-3)Gal(b1-3)[Fuc(a1-4)]GlcNAc(b1-2)Man(a1-3)[Gal(a1-3)Gal(b1-3)[Fuc(a1-4)]GlcNAc(b1-2)Man(a1-6)]Man(b1-4)GlcNAc(b1-4)GlcNAc
In short: as §1

Gal(a1-3)Gal(b1-4)Glc = target: Gal(a1-3)Gal(b1-4)Glc
In short: as §1

Gal(a1-3)Gal(b1-4)GlcNAc = target: Gal(a1-3)Gal(b1-4)GlcNAc
In short: as §1

[24] = target: Gal(a1-3)Gal(b1-4)GlcNAc(b1-2)Man
In short: as §1

[25] = target: Gal(a1-3)Gal(b1-4)GlcNAc(b1-2)Man(a1-3)[Gal(a1-3)Gal(b1-4)GlcNAc(b1-2)Man(a1-6)]Man(b1-4)GlcNAc(b1-4)GlcNAc
In short: as §1

[26] = target: Gal(a1-3)Gal(b1-4)GlcNAc(b1-3)GalNAc
In short: as §1

[27] = target: Gal(a1-3)Gal(b1-4)GlcNAc(b1-6)GalNAc
In short: as §1

[28] = target: Gal(a1-3)Gal(b1-4)[Fuc(a1-3)]GlcNAc
In short: as §1

[29] = target: Gal(a1-3)Gal(b1-4)[Fuc(a1-3)]GlcNAc(b1-2)Man(a1-3)[Gal(a1-3)Gal(b1-4)[Fuc(a1-3)]GlcNAc(b1-2)Man(a1-6)]Man(b1-4)GlcNAc(b1-4)GlcNAc
In short: as §1

Gal(a1-3)GalNAc = target: Gal(a1-3)GalNAc
In short: as §1

[30] = target: Gal(a1-3)[Gal(a1-4)]Gal(b1-4)GlcNAc
In short: as §1

[31] = target: Gal(a1-4)Gal(b1-3)GlcNAc(b1-2)Man(a1-3)[Gal(a1-4)Gal(b1-3)GlcNAc(b1-2)Man(a1-6)]Man(b1-4)GlcNAc(b1-4)GlcNAc
In short: as §1

Gal(a1-4)Gal(b1-4)Glc = target: Gal(a1-4)Gal(b1-4)Glc
In short: as §1

Gal(a1-4)Gal(b1-4)GlcNAc = target: Gal(a1-4)Gal(b1-4)GlcNAc
In short: as §1

[32] = target: Gal(a1-4)Gal(b1-4)GlcNAc(b1-2)Man(a1-3)[Gal(a1-4)Gal(b1-4)GlcNAc(b1-2)Man(a1-6)]Man(b1-4)GlcNAc(b1-4)GlcNAc
In short: as §1

[33] = target: Gal(a1-4)Gal(b1-4)GlcNAc(b1-3)Gal(b1-4)Glc
In short: as §1

Gal(a1-4)GlcNAc = target: Gal(a1-4)GlcNAc
In short: as §1

B1: AT1G15820(2) (Arabidopsis thaliana), Q9LMQ2 (protein)
chain: MAMAVSGAVLSGLGSSFLTGGKRGATALASGVGTGAQRVGRKTLIVAAAAAQPKKSWIPAVKGGGNFLDPEWLDGSLPGDFGFDPLGLGKDPAFLKWYREAELIHGRWAMAAVLGIFVGQAWSGVAWFEAGAQPDAIAPFSFGSLLGTQLLLMGWVESKRWVDFFNPDSQSVEWATPWSKTAENFANYTGDQGYPGGRFFDPLGLAGKNRDGVYEPDFEKLERLKLAEIKHSRLAMVAMLIFYFEAGQGKTPLGALGL
glycan array binding signal (z-score) [1]: -0.28
glycan array binding signal (z-score) (Fuc(a1-3)GlcNAc): -0.399
glycan array binding signal (z-score) [2]: -0.283
glycan array binding signal (z-score) [3]: -0.172
glycan array binding signal (z-score) [4]: -0.204
glycan array binding signal (z-score) [5]: -0.309
glycan array binding signal (z-score) [6]: -0.44
glycan array binding signal (z-score) [7]: 0.119
glycan array binding signal (z-score) [8]: -0.308
glycan array binding signal (z-score) [9]: 0.986
glycan array binding signal (z-score) [10]: -0.48
glycan array binding signal (z-score) [11]: 0.302
glycan array binding signal (z-score) [12]: -0.49
glycan array binding signal (z-score) [13]: 0.079
glycan array binding signal (z-score) [14]: -0.097
glycan array binding signal (z-score) [15]: -0.47
glycan array binding signal (z-score) [16]: -0.271
glycan array binding signal (z-score) [17]: 1.79
glycan array binding signal (z-score) [18]: -0.326
glycan array binding signal (z-score) (Fuc(a1-4)GlcNAc): -0.407
glycan array binding signal (z-score) (Fuc(b1-3)GlcNAc): -0.152
glycan array binding signal (z-score) (Gal(a1-2)Gal): -0.348
glycan array binding signal (z-score) (Gal(a1-3)Gal): 0.079
glycan array binding signal (z-score) (Gal(a1-3)Gal(b1-3)GlcNAc): -0.492
glycan array binding signal (z-score) [19]: -0.359
glycan array binding signal (z-score) [20]: -0.093
glycan array binding signal (z-score) [21]: -0.587
glycan array binding signal (z-score) [22]: -0.482
glycan array binding signal (z-score) [23]: -0.233
glycan array binding signal (z-score) (Gal(a1-3)Gal(b1-4)Glc): -0.501
glycan array binding signal (z-score) (Gal(a1-3)Gal(b1-4)GlcNAc): -0.28
glycan array binding signal (z-score) [24]: -0.301
glycan array binding signal (z-score) [25]: -0.162
glycan array binding signal (z-score) [26]: -0.257
glycan array binding signal (z-score) [27]: -0.383
glycan array binding signal (z-score) [28]: -0.435
glycan array binding signal (z-score) [29]: -0.502
glycan array binding signal (z-score) (Gal(a1-3)GalNAc): 3.12
glycan array binding signal (z-score) [30]: 9.8
glycan array binding signal (z-score) [31]: 0.677
glycan array binding signal (z-score) (Gal(a1-4)Gal(b1-4)Glc): 2.16
glycan array binding signal (z-score) (Gal(a1-4)Gal(b1-4)GlcNAc): 1.09
glycan array binding signal (z-score) [32]: -0.114
glycan array binding signal (z-score) [33]: -0.532
glycan array binding signal (z-score) (Gal(a1-4)GlcNAc): -0.399
